In PubChem BioAssay AID624418 (National Center for Advancing Translational Sciences (NCATS), 2012):
Hit rate of the full screen: of about 410,000 compounds, about 530 (0.13%) were called active. The shares of active, inactive and inconclusive entries below differ from those in the screen. Calls follow the shape of the dose curve; as a rule, active = well fitted inhibition curve with a large enough effect; inconclusive = small, poorly fitted or top-dose-only effect, or another doubt; inactive = no such curve, though single readings can be large or run the other way. Where the call is inconclusive, the potency comes from a doubtful curve fit.

assay: qHTS of GLP-1 Receptor Inverse Agonists: Cytotox Screen; conditions: HEK293 cAMP-luciferase reporter cells, luminescence, 24 h; activity change, negative = inhibition: at 38.3 µM (top of the series) unless noted
Outline: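 1536-well qHTS counterscreen of the MLSMR; 200 cells/uL, 12 h pre-incubation, 23 nL cpd, 24 h at 37 deg C 5% CO2, luciferase detection reagent, 12 min RT, luminescence. Inhibition = undesired.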
% is scaled to controls: 0 for no effect and ±100 for the full control effect; potency is read from the fitted curve at half-maximal effect.

Structure (SMILES) | Potency | activity change, negative = inhibition
C/C(=N\NC(=O)c1ccc(Br)cc1)C1C(=O)c2ccccc2C1=O | active: 10 µM | –
Cc1c(NC(=O)/C(C#N)=C/c2ccc(-c3ccc(Cl)c(Cl)c3)o2)c(=O)n(-c2ccccc2)n1C | inconclusive: 20 µM [inhibitor, single point] | –
Cc1ccc2[nH]c(=O)c(-c3nc4cc(C)ccn4c3NCc3ccco3)cc2c1 | inconclusive: 28.2 µM [inhibitor, single point] | –
CC(C)(C)C1CCC(=O)N(CCSc2ccccc2)CC1 (stereo not drawn) | – | inactive: -6.46%
COc1ccc(NC(=O)CSc2nc3ccccc3c(=O)n2CCC(=O)N2CCCCC2)cc1 | inconclusive: 5.01 µM [inhibitor, full curve] | –
Cn1cc(-c2cc3n(n2)CCC(=O)N3CCCC(=O)NCc2ccc(Cl)cc2)c2ccccc21 | inconclusive: 12.6 µM [inhibitor, single point] | –
Cc1ccccc1Oc1ccc2c(c1)[C@@H]1C[C@H]3[C@@H](C(=O)N1CC2)[C@H](C)ON3C | – | inactive: 0.0755%
O=C(C[n+]1ccc(-c2cc(C(=O)Nc3cccc(C(F)(F)F)c3)c3ccccc3n2)cc1)c1cccc([N+](=O)[O-])c1 | inconclusive: 28.2 µM [inhibitor, single point] | –
O=C(NC(NC(=S)Nc1ccccc1)C(Cl)(Cl)Cl)c1cccc(Cl)c1 (stereo not drawn) | inconclusive: 28.2 µM [inhibitor, single point] | –
CCN(CC)c1ccc(NC(=O)C2CCN(c3nnc(-n4cccc4)s3)CC2)c(C)c1 | – | inactive: -16.1%
CCCCCOc1ccc(Br)cc1/C(C)=N/NC1=NCCN1 | inconclusive: 5.62 µM [inhibitor, partial curve, poor fit] | –
Cc1ccccc1Nc1c(-c2cc(Br)ccc2F)nc2ccccn12 | – | inactive: -4.65%
CCn1nc(C(=O)Nc2nc(-c3ccccn3)cs2)c2ccccc2c1=O | inconclusive: 3.55 µM [inhibitor, full curve] | –
Cc1cccc(N=C2NC(=O)/C(=C3/C(=O)N(C)c4ccccc43)S2)c1C | inconclusive: 10 µM [inhibitor, partial curve, poor fit] | –
C/C(=N\Nc1nccnc1Cl)c1ccc(Cl)c(Cl)c1 | inconclusive: 14.1 µM [inhibitor, single point] | –
COc1ccc2[nH]c3c(C)c4ccncc4c(C)c3c2c1 | inconclusive: 8.91 µM [inhibitor, partial curve] | –
NC1=C(Cl)C(=O)c2ccc(S(N)(=O)=O)cc2C1=O | inconclusive: 5.62 µM [inhibitor, full curve, poor fit] | –
CCSc1nnc(NC(=O)C2CCCN(C(=O)c3ccc(Cl)cc3)C2)s1 (stereo not drawn) | inconclusive: 28.2 µM [inhibitor, single point] | –
Cc1c(CNC2CCCCC2)c(C(=O)O)c(C)n1Cc1cccc(Cl)c1 | – | inactive: 3.57%
COc1ccc(-c2csc(Nc3ncccn3)n2)cc1C | – | inactive: -18.5%
O=C(CCl)Nc1ccc(S(=O)(=O)NC2=NCCCCC2)cc1 | inconclusive: 7.08 µM [inhibitor, partial curve, poor fit] | –
Cc1csc(NC(=O)NC2(C(F)(F)F)Oc3ccccc3O2)n1 | inconclusive: 31.6 µM [inhibitor, single point] | –

Structure (SMILES) | Potency | activity change, negative = inhibition
O=C1NN(c2ccccc2)C(=O)C1=Cc1ccccc1 | inconclusive: 5.01 µM [inhibitor, full curve, poor fit] | –
Cc1ccc(OCCNC(=O)c2ccc(C)cc2)cc1 | – | inactive: 2.63%
CSc1cccc(NC(=S)N(CCC(C)C)C2CCN(C(C)C)CC2)c1 | inconclusive: 12.6 µM [inhibitor, single point] | –
CCOCCCNC(=O)C(NC(=O)c1ccccc1O)c1ccc(C)cc1 (stereo not drawn) | inconclusive: 28.2 µM [inhibitor, single point] | –
COc1cc(C2c3cc4c(cc3OC(N3CCCCC3)C2C)OCO4)cc(OC)c1O (stereo not drawn) | inconclusive: 10 µM [inhibitor, partial curve, poor fit] | –
CCOC(=O)c1cc2[nH]c3ccccc3c2[n+](-c2ccc([N+](=O)[O-])cc2)c1N | inconclusive: 10 µM [inhibitor, single point] | –
O=C(c1nn(Cc2ccccc2)c(=O)c2ccccc12)N1CCN(c2ccccn2)CC1 | inconclusive: 17.8 µM [inhibitor, partial curve, poor fit] | –
COc1ccccc1C(=O)Nc1ccc2c(C)cc(=O)oc2c1 | – | inactive: 3.13%
COc1ccccc1/C=C/C(=O)OCC(=O)Nc1ccc(Cl)cn1 | inconclusive: 10 µM [inhibitor, partial curve, poor fit] | –
CC12CCC(=O)N1C(C(=O)Nc1nc3ccc(Cl)cc3s1)CS2 (stereo not drawn) | – | inactive: -2.84%
O=C(CSC1=NS(=O)(=O)c2ccccc2N1)Nc1ccc(F)cc1 | inconclusive: 22.4 µM [inhibitor, single point] | –
O=C(/C=C/c1ccco1)Nc1nc(-c2ccccc2)cs1 | – | inactive: -6.58%
CC(=O)N1Cc2cc(C(=O)NCC(F)(F)F)nc(-c3cccc(-c4cccnc4)c3)c2[C@@H]1CCO | inconclusive: 0.794 µM [inhibitor, full curve, poor fit] | –
Cc1cccc(NC(=O)CSc2nc(C)c(CC(=O)c3ccc(Br)cc3)c(C)c2C#N)c1C | – | inactive: 8.69%
COc1ccc(NC(=S)NCCc2ccc(Cl)cc2)c(OC)c1 | inconclusive: 28.2 µM [inhibitor, single point] | –
CCc1ccccc1-n1c(C)nc2cc(C(=O)NCCc3ccc(Cl)cc3)ccc21 | inconclusive: 28.2 µM [inhibitor, single point] | –
COc1ncccc1-c1nnn(-c2ccccc2Br)n1 | inconclusive: 31.6 µM [inhibitor, partial curve, poor fit] | –
COc1cc(NC(=O)c2ccc(C)cc2C)ccc1NC(=O)c1cccs1 | – | inactive: 5.92%
Cc1ccc(-c2nnc3cccc(Cl)n23)cc1 | – | inactive: -7.42% [at 0.307 µM]
Cc1cc(C(=O)NCCCN2CCN(c3cc(Cl)ccc3C)CC2)n(-c2ccccc2)n1 | inconclusive: 17.8 µM [inhibitor, single point] | –
CCc1nnc(NC(=O)C2CCC(CNc3c(N4CCC(C)CC4)c(=O)c3=O)CC2)s1 (stereo not drawn) | – | inactive: 3.39%
